{
  "source": "PubChem BioAssay AID540317",
  "about": "(National Center for Advancing Translational Sciences (NCATS), 2011)",
  "note": "The whole screen tested about 390,000 compounds, of which about 2,200 (0.56%) were called active. Inconclusive means that the source gave no clear call. Such entries were picked first, then a sample of the others. Calls follow the shape of the dose curve; as a rule, active = well fitted inhibition curve with a large enough effect; inconclusive = small, poorly fitted or top-dose-only effect; inactive = no such curve, though single readings can be large or run the other way. A potency beside an inconclusive call is a rough fit, not a confirmed value. Potency is read from the fitted curve at half-maximal effect; tags tell the direction and shape of the fitted curve.",
  "data": [
    {"biological_target": "Chromobox protein homolog 1 (Homo sapiens) (UniProt P83916)", "sequence (P83916 whole entry, looked up)": "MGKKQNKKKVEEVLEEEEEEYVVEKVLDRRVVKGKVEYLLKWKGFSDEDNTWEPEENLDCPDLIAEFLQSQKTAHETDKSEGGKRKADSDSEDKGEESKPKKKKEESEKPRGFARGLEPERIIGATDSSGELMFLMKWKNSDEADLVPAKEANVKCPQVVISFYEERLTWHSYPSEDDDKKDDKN", "test": "HTS for Inhibitors of HP1-beta Chromodomain Interactions with Methylated Histone Tails; also: nearly all actives have a fitted effect of over 70% in size", "details": "AlphaScreen HP1-beta / biotin-H3K9me3 peptide binding; series mostly up to 114 µM; activity change, negative = inhibition: at the top concentration", "procedure,_shortened": "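Compound inhibition of the preformed complex between 50 nM HP1-beta and 50 nM biotinylated H3K9me3 peptide was read by AlphaScreen. Buffer was PBS pH 7.4 with 0.01% Tween-20. Incubations ran 30 min at room temperature, with 10 ug/mL donor/acceptor beads.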", "values": [
      {"smiles": "CC1=NN(c2ccccc2)C(=O)/C1=C/C=C/c1ccccc1", "Potency": "active: 31.6 µM"},
      {"smiles": "COCCNCCCOc1ccc(Br)cc1Cl", "Potency": "inconclusive: 89.1 µM [inhibitor, single point]"},
      {"smiles": "Nc1cc2c(cc1[N+](=O)[O-])-c1ccccc1C2=NO", "Potency": "inconclusive: 14.1 µM [inhibitor, full curve, poor fit]"},
      {"smiles": "COc1ccccc1N1CCN(CC(=O)NCC2CCCO2)CC1", "note": "(stereo not given)", "Potency": "inconclusive: 15.8 µM [inhibitor, partial curve, poor fit]"},
      {"smiles": "CCc1ccc(C(=O)COC(=O)c2cccc(N3C(=O)c4c(C)nc5ccccc5c4C3=O)c2)cc1", "Potency": "inconclusive: 7.08 µM [inhibitor, partial curve, poor fit]"},
      {"smiles": "CCOc1cccc2cc(C(=O)NCc3ccc(F)cc3)c(=N)oc12", "activity change, negative = inhibition": "inactive: 25.6%"},
      {"smiles": "CC1C/C(=N\\Nc2ccc(S(N)(=O)=O)cc2[N+](=O)[O-])CC(C)(C)C1", "note": "(stereo not given)", "Potency": "inconclusive: 50.1 µM [inhibitor, partial curve]"},
      {"smiles": "CCOC(=O)C(C)Sc1nc(=O)n2ccccc2n1", "note": "(stereo not given)", "Potency": "inconclusive: 39.8 µM [inhibitor, single point]"},
      {"smiles": "CN(C)c1ccc(-n2cccc2)cc1", "Potency": "active: 22.4 µM"},
      {"smiles": "O=C(c1ccc2c(c1)OCO2)C1CCCN(Cc2cccn2-c2cccnc2)C1", "note": "(stereo not given)", "Potency": "inconclusive: 70.8 µM [inhibitor, partial curve]"},
      {"smiles": "CC(NNC(=S)N1CCN(c2ccccn2)CC1)c1nccc2ccccc12", "note": "(stereo not given)", "Potency": "active: 25.1 µM"},
      {"smiles": "CC(C)c1cc(C(=O)NNC(=S)NCc2ccco2)c(O)c(C(C)C)c1", "activity change, negative = inhibition": "inactive: -30.9%"},
      {"smiles": "O=C(/C(=C/O)N=Nc1ccccc1)c1ccco1", "Potency": "inconclusive: 50.1 µM [inhibitor, partial curve]"},
      {"smiles": "Cc1nc2scc(-c3ccco3)c2c(=O)n1/N=C/N(C)C", "activity change, negative = inhibition": "inactive: 23.1%"},
      {"smiles": "COc1ccc(NC(=S)NNS(=O)(=O)c2ccc3ccccc3c2)c(OC)c1", "Potency": "inconclusive: 15.8 µM [inhibitor, partial curve, poor fit]"},
      {"smiles": "COC(=O)[C@H](CCSC)NC(=O)Nc1ccc(C(C)=O)cc1", "activity change, negative = inhibition": "inactive: 39.9%"},
      {"smiles": "CCCc1nnc(NC(=O)CN2C(=O)c3ccccc3S2(=O)=O)s1", "Potency": "inconclusive: 10 µM [inhibitor, partial curve]"},
      {"smiles": "CN(C)c1ccc(/C=C/C(=O)c2ccc(C(C)(C)C)cc2)cc1[N+](=O)[O-]", "Potency": "active: 31.6 µM"},
      {"smiles": "CC(=O)Nc1ccc(S(=O)(=O)Oc2ccc(C(=S)N3CCCCC3)cc2)cc1", "Potency": "inconclusive: 22.4 µM [inhibitor, full curve]"},
      {"smiles": "CN(C)c1ccc(C2NCCS2)cc1", "note": "(stereo not given)", "Potency": "inconclusive: 39.8 µM [inhibitor, single point]"},
      {"smiles": "O=C(CSc1c2c(nc3cc(Cl)ccc13)CCCC2)N1CCN(c2ccccc2F)CC1", "activity change, negative = inhibition": "inactive: 33.6%"},
      {"smiles": "CCOC(=O)c1noc2ncn(CC(=O)Nc3cccc(Cl)c3)c(=O)c12", "activity change, negative = inhibition": "inactive: 15.1% [at 57 µM]"},
      {"smiles": "CCOC(=O)c1c(C)oc2c1c(CN1CCN(CCO)CC1)c(O)c1ccccc12", "Potency": "inconclusive: 15.8 µM [inhibitor, full curve]"},
      {"smiles": "COc1ccc(Cl)cc1NC(=O)CN(C)C(=O)c1ccc(N2CCCCCC2)c([N+](=O)[O-])c1", "Potency": "inconclusive: 31.6 µM [inhibitor, partial curve]"},
      {"smiles": "Nc1nc(Nc2ccccc2Cl)cc(=O)[nH]1", "activity change, negative = inhibition": "inactive: 2.55%"},
      {"smiles": "O=C(c1cccc(Cl)c1)n1nc(-c2cccnc2)nc1NCc1ccccc1", "activity change, negative = inhibition": "inactive: 80.9%"},
      {"smiles": "Nc1ccc(Nc2ccc([N+](=O)[O-])cc2[N+](=O)[O-])cc1", "Potency": "inconclusive: 20 µM [inhibitor, full curve]"},
      {"smiles": "O=c1cc(-c2ccccc2Cl)oc2c(Br)ccc(O)c12", "activity change, negative = inhibition": "inactive: 17.5%"},
      {"smiles": "COc1ccc(-c2nn(-c3ccccc3)cc2/C=N/NC(=O)c2ccc(Br)o2)cc1", "Potency": "inconclusive: 89.1 µM [inhibitor, single point]"},
      {"smiles": "CN1C(=O)C2C(c3ccc(N(C)C)cc3)=NN(Cc3ccccc3)C2C1=O", "note": "(stereo not given)", "Potency": "inconclusive: 44.7 µM [inhibitor, partial curve]"},
      {"smiles": "COc1ccccc1N1CCN(C2CCN(C(=O)c3cccc(F)c3)CC2)CC1", "Potency": "inconclusive: 11.2 µM [inhibitor, full curve, poor fit]"},
      {"smiles": "Cc1cc(-c2n[nH]c(=S)n2-c2ccc(F)cc2)nn1C", "activity change, negative = inhibition": "inactive: 25.2%"},
      {"smiles": "Nn1c(SCC(=O)Nc2ccc3c(c2)OCO3)nnc1C(F)(F)F", "Potency": "inconclusive: 35.5 µM [inhibitor, full curve]"},
      {"smiles": "CC1(C)OC(=O)N(c2ccccc2)C12C=Cc1cc(Br)ccc1O2", "note": "(stereo not given)", "activity change, negative = inhibition": "inactive: 23.7%"},
      {"smiles": "O=[N+]([O-])c1ccccc1Nc1ccc(O)cc1", "Potency": "inconclusive: 39.8 µM [inhibitor, partial curve]"},
      {"smiles": "O=[N+]([O-])c1cc(Cl)ccc1Nc1ccccc1", "Potency": "active: 17.8 µM"},
      {"smiles": "Cc1cc(C)cc(NC2=C(c3ccccc3)C(=O)c3ccccc32)c1", "Potency": "inconclusive: 12.6 µM [inhibitor, full curve]"},
      {"smiles": "COc1ccc(S(=O)(=O)N2CCN(CC(=O)NCCc3cccs3)CC2)cc1", "activity change, negative = inhibition": "inactive: 32.4%"},
      {"smiles": "O=C(CCN1C(=O)/C(=C/c2ccc3c(c2)OCO3)SC1=S)Nc1ccc(C(=O)O)cc1", "Potency": "inconclusive: 70.8 µM [inhibitor, partial curve]"},
      {"smiles": "CCOC(=O)C1CCCN(C(=O)Cn2ncc3c(C)n(Cc4ccccc4F)c(C)c3c2=O)C1", "note": "(stereo not given)", "activity change, negative = inhibition": "inactive: 10.2%"},
      {"smiles": "CN1C(=O)C2(c3ccccc31)N(C)CC(c1ccccn1)C21SC(=S)N(Cc2ccco2)C1=O", "note": "(stereo not given)", "Potency": "inconclusive: 35.5 µM [inhibitor, partial curve]"},
      {"smiles": "Cc1nc(COc2cccc(Cl)c2)sc1C(=O)/C=C/N(C)C", "Potency": "inconclusive: 79.4 µM [inhibitor, single point]"},
      {"smiles": "CN(Cc1ccccc1)C(=O)CN1C(=O)c2ccc([N+](=O)[O-])cc2C1=O", "Potency": "inconclusive: 89.1 µM [inhibitor, partial curve, poor fit]"},
      {"smiles": "N#Cc1c(NC(=S)NC(=O)c2ccccc2)sc2c1CCCCC2", "Potency": "inconclusive: 25.1 µM [inhibitor, partial curve, poor fit]"},
      {"smiles": "C/C(CC(=O)Nc1ccc2c(c1)OCO2)=N\\NC(=O)OC(C)(C)C", "Potency": "inconclusive: 44.7 µM [inhibitor, partial curve, poor fit]"}
    ]}
  ]
}
